In all, about 110,000 compounds went through this assay and about 40 (0.04%) were called active. Inconclusive means that the source gave no clear call. Such entries were picked first, then a sample of the others. Calls come from the whole dose curve; as a rule, active = well fitted curve in the direction sought with a large enough effect in the signal ratio (not every such curve was filed as active); inconclusive = small, poorly fitted or top-dose-only effect, or a change in a side signal; inactive = flat fitted curve, though single readings scatter; the % refers to the signal ratio. Potencies beside an inconclusive call are fits to weak or partial responses and may not hold up.
test: IkB Signaling; details: ABC-DLBCL IkBa-CBG/CBR dual luciferase ratio (green luciferase fused to IkBa over red control in OCI-Ly3 lymphoma cells), 4 h; IkBa stabilization activation: at 57.1 µM (top of the series), scaled: untreated 0%, proteasome inhibitor 100% unless noted;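 for IkBa stabilization activation: 0% = basal untreated cells and 100% = reference inhibitor full response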
Method in brief: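 In this assay, an IκBα–CBG68 fusion accumulates when IKK-driven degradation is blocked; native CBR normalizes for cell number. OCI-Ly3 cells were treated 4 h with compound and doxycycline, then green and red light read after Chroma-Glo addition.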
Potency is the fitted concentration of half-maximal effect.

| SMILES | IkBa stabilization activation | Potency |
| --- | --- | --- |
| N#CCSc1nc2cc(C(=O)N3CCC(C(N)=O)CC3)ccc2c2nc3ccccc3n12 | inactive: -4.65% |  |
| Cc1cc(C)n(-c2nc(Nc3ccccc3)nc(-n3nc(C)cc3C)n2)n1 | inactive: -0.36% |  |
| Cc1cccc(C(=O)Nc2nc(-c3nnn(-c4cc(C)ccc4C)c3C)ns2)c1 | inconclusive: 14.7% [signal inhibitor] |  |
| COc1cc2c(cc1C(F)(F)F)N(C(=O)Nc1cc(F)cc(-c3cccnc3)c1)CC2 | inconclusive: 0.989% [signal inhibitor] |  |
| CCc1nc(SCc2ccccn2)c2c(=O)n(C)c(=O)n(C)c2n1 | inactive: 1.43% |  |
| COC(=O)c1ccccc1NC(=O)C1CCCN(S(=O)(=O)c2ccc(F)cc2)C1 (stereo not given) | inconclusive: 2.37% [signal inhibitor] |  |
| Cc1cccc(CNC(=O)Cn2ccc3cc(S(=O)(=O)N4CCC(C)CC4)ccc32)c1 | inconclusive: -0.192% [signal inhibitor] |  |
| NCCOc1ccccc1-c1ccccc1 | inactive: -0.523% |  |
| Cc1cc(C)cc(Nc2cc(C)nc3nc(-c4ccco4)nn23)c1 | inconclusive: 5.85% [signal inhibitor] |  |
| Cc1cc2ncn(CCOc3ccccc3C#N)c2cc1C | inconclusive: 7.64% [signal inhibitor] |  |
| O=C(CSc1n[nH]c(-c2ccccc2O)n1)N1CCCc2ccccc21 | inconclusive: 4.71% [signal inhibitor] |  |
| O=C(O)C[C@@H]1CCCc2ccccc2[C@H]1O | inactive: -0.437% |  |
| Cc1cc(N2CCC(C(=O)NCCC(C)C)CC2)n2nc(C)c(-c3ccc(Cl)cc3)c2n1 | inconclusive: 0.0909% [signal inhibitor] |  |
| Cc1ccc(CN(C(=O)c2ccccc2[N+](=O)[O-])c2ccccn2)cc1 | inconclusive: 0.0191% [signal inhibitor] |  |
| COc1ccccc1NC(=O)CSc1oc(-c2ccc(F)cc2)nc1S(=O)(=O)c1ccc(Br)cc1 |  | inconclusive: 20 µM [signal inhibitor, single point] |
| CCOC(=O)C1Cn2c(nc3c(c2=O)C2(CCCC2)Cc2ccccc2-3)S1 (stereo not given) | inconclusive: 1.66% [signal inhibitor] |  |
| Cn1c(=O)c2c(SCC(=O)Nc3ccc(F)cc3F)nc(C3CCCC3)nc2n(C)c1=O | inconclusive: -0.81% [signal inhibitor] |  |
| CCOC(=O)c1cnc(N2CCN(c3ccc(C)cc3C)CC2)c2ccccc12 | inactive: -2.17% |  |
| CSc1cccc(NC(=O)CN2C(=O)COc3ccc(S(=O)(=O)N4CCC(C)CC4)cc32)c1 | inconclusive: 1.96% [signal inhibitor] |  |
| O=C(CN1C(=O)CC(c2ccco2)Sc2ccccc21)Nc1ccccc1F (stereo not given) | inconclusive: 10% [signal inhibitor] |  |
| O=C(c1ccc(S(=O)(=O)N2CCC(c3nc4ccccc4[nH]3)CC2)cc1)N1CCOCC1 | inactive: 0.0603% |  |
| Cc1ccccc1CNC(=O)c1ccc2[nH]c(C)c(C)c2c1 | inconclusive: 17.7% [signal inhibitor] |  |
| Nc1nc2ccc(Cl)cc2c2nc(-c3ccco3)nn12 | inactive |  |
| COc1ccc(Cc2nnc(SC)[nH]c2=O)cc1OC | inactive: 2.04% |  |

| SMILES | IkBa stabilization activation | Potency |
| --- | --- | --- |
| Cn1nnnc1SCCCNCc1cc(Cl)ccc1OCc1ccccc1F | inconclusive: 0.197% [signal inhibitor] |  |
| CCCCCc1nn2cc(-c3ccccc3)nc2s1 |  | inconclusive: 25.1 µM [signal inhibitor] |
| Cc1cccc(N2CCN(S(=O)(=O)c3c(C(=O)N4CCC(C)CC4)c(C)n(C)c3C)CC2)c1C | inconclusive: 4.53% [signal inhibitor] |  |
| COC(=O)c1ccc(NC(=O)CC2C(=O)N(c3ccccc3)C(=O)N2Cc2ccco2)cc1 (stereo not given) | inconclusive: 2.46% [signal inhibitor] |  |
| Cc1ccc(NC(=O)Cn2cnc3sc(C)c(S(=O)(=O)N4CCN(c5ncccn5)CC4)c3c2=O)cc1F | inactive: 0.734% |  |
| Cn1c(CN2CCCCC2)nc2cc(NC(=O)c3ccccc3)ccc21 |  | inconclusive: 20 µM [signal inhibitor, partial curve] |
| CCOc1ccc(C(c2c(O)cc(C)n(Cc3ccco3)c2=O)N2CCN(c3ccccc3)CC2)cc1 (stereo not given) | inactive: 4.05% |  |
| Cc1cccc(CNC(=O)C2CCN(S(=O)(=O)c3ccc4c(c3)CCCN4C(=O)C3CCC3)CC2)c1 | inactive: 1.72% |  |
| CCCc1c(O)nc(SCc2ccccc2)[nH]c1=O | inactive: -6.02% |  |
| Cc1ccc(C2C=C(c3ccc(Cl)cc3)Nc3nc(NC(=O)c4ccco4)nn32)cc1 (stereo not given) | inactive: -3.32% |  |
| COc1cc(Nc2ncc3c(n2)CCN(Cc2cc(F)cc(F)c2)C3)cc(OC)c1 | inactive: -0.732% |  |
| Cc1ccc(C)c(N2CCN(S(=O)(=O)c3ccc4c(c3)OCCO4)CC2)c1 | inconclusive: 4.51% [signal inhibitor] |  |
| CCOC(=O)CS(=O)(=O)c1nc(-c2ccc(F)cc2)cc(C(F)(F)F)n1 | inconclusive: -1.93% [signal inhibitor] |  |
| O=C(Nc1ccc(F)cc1F)N1CCN(c2ccc(Cl)c(Cl)c2)CC1 | inconclusive: -4.13% [signal inhibitor] |  |
| Cc1ccc(Cl)cc1NC(=O)Cn1ncc2c(C)n(Cc3ccccc3F)c(C)c2c1=O | inconclusive: 16.1% [signal activator] |  |
| COc1ccc(-c2nc(-c3ccccc3)c(-c3ccc(F)cc3)[nH]2)c(OC)c1C | inconclusive: 8.89% [signal inhibitor] |  |
| CCOC(=O)c1ccc(Oc2nc(SC)nc(N(C)C)n2)cc1 | inconclusive: 1.3% [signal inhibitor] |  |
| Cc1ccc(C(C(=O)NC2CCCCC2)N(Cc2cccnc2)C(=O)C2COc3ccccc3O2)o1 (stereo not given) | inconclusive: 7.82% [signal activator] |  |
| CCOc1ccc(CCNC(=O)c2ccc3c(c2)sc2nc(-c4ccc(F)cc4)cn23)cc1OCC | inconclusive: 11.4% [signal inhibitor] |  |
| COc1ccc(C2=NOC(CN3C(=O)c4ccccc4S3(=O)=O)C2)cc1 (stereo not given) | inconclusive: 4.69% [signal inhibitor] |  |
| Cc1ccc(C(CC(=O)Nc2ccc(F)c(Cl)c2)N2Cc3ccccc3C2=O)cc1 (stereo not given) | inconclusive: 0.471% [signal inhibitor] |  |
| COc1ccc(CNc2nc(-c3ccc(N(C)C)cc3)nc3ccccc23)c(OC)c1 | inactive: 5.64% [at 11.4 µM, scaled: untreated 0%, proteasome inhibitor 100%] |  |
| CC(C)c1ccc(NC(=O)CCn2c(=O)c3cccn3c3ccccc32)cc1 | inconclusive: 1.5% [signal inhibitor] |  |
| COc1cc(C(=O)Nc2nonc2-c2ccc(Cl)cc2)cc(OC)c1OC | inconclusive: 13.1% [signal inhibitor] |  |

| SMILES | IkBa stabilization activation | Potency |
| --- | --- | --- |
| Cc1ccc(N2CC(NC(=O)C3CC3)CC2=O)cc1C (stereo not given) | inactive: -1.05% |  |
| CCOC(=O)c1ccn(-c2nc(-c3cccc(OC)c3)cc(C(F)(F)F)n2)n1 |  | inconclusive: 12.6 µM [signal inhibitor] |
| CCOC(=O)c1[nH]c(C)c(CCC(=O)Nc2ccc(Br)c(C)c2)c1C | inconclusive: -2.09% [signal inhibitor] |  |
| COc1ccc(C(=O)N(Cc2ccco2)Cc2ccccc2F)cc1Cl | inconclusive: -1.7% [signal inhibitor] |  |
| O=C(NCC(c1ccco1)S(=O)(=O)c1ccc(Cl)cc1)c1ccc(C(F)(F)F)cc1 (stereo not given) | inconclusive: 3.33% [signal inhibitor] |  |
| Cc1ccc(Cn2c(SCc3ccc(C(=O)O)cc3)nc3cccnc32)cc1 | inconclusive: 3.5% [signal inhibitor] |  |
| CCOC(=O)CCc1c(C)c2cc3c(c(C)c2oc1=O)OCN(CCc1ccccc1OC)C3 | inactive: -0.154% |  |
| CCOc1ccc(CCNC(=O)c2ccc3nc(N4CCC(C)CC4)sc3c2)cc1OCC | inconclusive: 1.1% [signal inhibitor] |  |
| CCN(CCCNC(=O)CN1N=C(c2ccccc2)CCC1=O)c1cccc(C)c1 | inconclusive: -1.22% [signal inhibitor] |  |
| Brc1ccc(-c2cn3cc(Cc4ccccc4)sc3n2)cc1 | inactive: 6.37% |  |
| COc1ccc(OC)c(Nc2nc(-c3ccc(O)c(O)c3)cs2)c1 | inconclusive: 4.38% [signal inhibitor] |  |
| CCOC(=O)c1ccc(NC(=O)c2noc3c2CCCC3)cc1 |  | inconclusive: 20 µM [signal inhibitor] |
| CCOc1ccc(-c2cc3nc(C4CCN(C(=O)OC(C)(C)C)CC4)c(C(=O)Nc4cccc(Cl)c4C)cn3n2)cc1 | inactive: 0.957% |  |
| COc1cccc(NC(=O)CSc2nnc(Cc3cccn3C)n2-c2ccc(F)cc2)c1 | inconclusive: 2.54% [signal inhibitor] |  |
| CCN(c1ccccc1)c1ncnc2c1cnn2-c1ccc(OC)cc1 | inconclusive: -2.67% [signal inhibitor] |  |
| O=S(=O)(NCCc1nnc2ccc(SCc3cccc(Cl)c3)nn12)c1ccccc1 | inconclusive: 1.76% [signal inhibitor] |  |
| Cc1cc(N2CCN(C)CC2)nc2ccc(NC(=O)Nc3ccc(F)cc3)cc12 | inconclusive: -3.45% [signal inhibitor] |  |
| CC(=O)N1CCCc2cc(S(=O)(=O)N3CCCC(C(=O)Nc4ccc(F)cc4F)C3)ccc21 (stereo not given) | inconclusive: 2.82% [signal inhibitor] |  |
| COc1ccc(CCNC(=O)c2ccc3nc(-c4ccco4)c(-c4ccco4)nc3c2)cc1OC | inconclusive: 6.67% [signal inhibitor] |  |
| Cc1ccc(NC(=O)CSc2nc(=O)n(Cc3ccncc3)c3c2CCC3)cc1Cl | inconclusive: 0.609% [signal inhibitor] |  |
| O=C(CN1CCN(C2CCCCC2)CC1)Nc1ccccc1-c1ccccc1 | inactive: 0.199% |  |
| COc1cc2c3cc1Oc1c(OC)c(OC)cc4c1[C@@H](Cc1ccc(O)c(c1)Oc1ccc(cc1)C[C@@H]3N(C)CC2)N(C)CC4 | inactive: -0.0995% [at 11.4 µM, scaled: untreated 0%, proteasome inhibitor 100%] |  |

From PubChem BioAssay AID445 (National Center for Advancing Translational Sciences (NCATS), 2006)
